Test results taken from PubChem BioAssay AID686979 (National Center for Advancing Translational Sciences (NCATS), 2013).
Screen size: about 420,000 compounds; about 50,000 (12%) were called active. This list was built around the results that the source calls inconclusive (neither active nor inactive); the mix of calls is not that of the screen. Calls follow the shape of the dose curve; as a rule, active = well fitted inhibition curve with a large enough effect; inconclusive = small, poorly fitted or top-dose-only effect; inactive = flat fitted curve, though single readings scatter. No potency is given beside an inconclusive call; the fits are too rough.

Test: qHTS for Inhibitors of human tyrosyl-DNA phosphodiesterase 1 (TDP1): qHTS in cells in presence of CPT; also: nearly all actives have a fitted effect of over 55% in size
Conditions: chicken DT40 Tdp1-/-;hTDP1 cells + 20 nM CPT, ATP luminescence, 48 h; activity change, negative = growth inhibition: at 46.2 µM (top of the series) unless noted
Outline: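 Chicken DT40 Tdp1-/- cells complemented with human TDP1, 400 cells/well, exposed to compounds plus 20 nM camptothecin for at least 48 h at 37 C; viability read as ATP content by CellTiter-Glo luminescence.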
% is scaled to controls: 0 for no effect and ±100 for the full control effect; potency is read from the fitted curve at half-maximal effect; tags tell the direction and shape of the fitted curve.

Structure (SMILES) | Potency | activity change, negative = growth inhibition
COc1cccc(NC(=O)CCc2nnc3ccc(N4CCC(C)CC4)nn23)c1 | inconclusive [inhibitor, single point] | 
Cc1cccc(NC(=O)CSc2nc3n[nH]c(C)c3c(=N)n2-c2cccc(Cl)c2)c1 | active: 18.4 µM | 
COc1ccc2ccccc2c1/C=N/n1cnnc1 |  | inactive: 20.5%
Nc1nc(CN2CCN(c3ccccc3)CC2)nc(Nc2ccc(Cl)cc2)n1 | inconclusive [inhibitor, single point] | 
CC(NC(=O)CN1C(=O)NC2(CCc3ccccc32)C1=O)c1ccc2c(c1)OCCO2 (stereo not given) |  | inactive: -2.65%
Cc1ccc(S(=O)(=O)NCc2ccc3[nH]c(C)cc3c2)cc1 | inconclusive [inhibitor, partial curve] | 
Cc1ccccc1-c1coc2cc(O)ccc2c1=O | inconclusive [inhibitor, single point] | 
O=c1cc(O)c2c(=O)n(Cc3ccccc3)c3ccccc3c2o1 | inconclusive [inhibitor, single point] | 
CCCC(NC(=S)NCC1CCCO1)C12CC3CC(CC(C3)C1)C2 (stereo not given) | inconclusive [inhibitor, single point] | 
CCCCC(=O)N(C)c1c(CC)nc2c(OCc3cc(Cl)cc(Cl)c3)cccn12 | inconclusive [inhibitor, partial curve, poor fit] | 
O=C(CN1C(=O)NC2(CCCC2)C1=O)Nc1ccc(C(F)(F)F)cc1 | inconclusive [inhibitor, single point] | 
CNC(=O)c1cc(NC(=O)CCn2nc(-c3ccc(C)cc3)c3ccccc3c2=O)ccc1OC | inconclusive [inhibitor, single point] | 
N#Cc1ccc(NC(=O)COCc2cc(-c3ccco3)on2)cc1 | inconclusive [inhibitor, partial curve, poor fit] | 
N#CCc1cccnc1Sc1ccc(Cl)cc1 | inconclusive [inhibitor, single point] | 
CCOC(=O)C1CCN(CCC(=O)Nc2ccccc2OC)CC1 |  | inactive: -22.3%
Cc1ccc(NS(=O)(=O)c2ccc(C(=O)N3CCN(S(=O)(=O)c4ccccc4)CC3)cc2)cc1 | active: 11.6 µM | 
COc1cc(S(=O)(=O)N2CCCCCC2)ccc1Cl | inconclusive [inhibitor, single point] | 
COc1ccc(NC(=S)N2CCN(Cc3ccco3)CC2)c(OC)c1 | inconclusive [inhibitor, single point] | 
COc1cc(OC)cc(-c2c(-c3cccs3)c3cc(-c4ccc5c(c4)OCO5)ccc3n2C)c1 | inconclusive [inhibitor, single point] | 
Cc1ccc(S(=O)(=O)Nc2cccc(C(=O)NCC(c3ccc(F)cc3)N3CCOCC3)c2)cc1 (stereo not given) | inconclusive [inhibitor, partial curve, poor fit] | 
COc1ccc(O)c(/C=N\NC(=O)CCn2nnc3ccccc32)c1 | inconclusive [inhibitor, single point] | 
NS(=O)(=O)c1cc(C(=O)OCC(=O)Nc2ccccc2[N+](=O)[O-])ccc1Cl |  | inactive: 6.14%
ClC1(Cl)CC1Cn1cnc2ccccc21 (stereo not given) | inconclusive [inhibitor, single point] | 
COC(=O)CSc1[nH]c2ccccc2c1[N+](=O)[O-] | active: 18.4 µM | 

Structure (SMILES) | Potency | activity change, negative = growth inhibition
CN(CC(=O)Nc1ccccc1Br)C(=O)CNC(=O)Cc1cccc2ccccc12 |  | inactive: -18.6%
COc1ccc(C2=NN(CCC(=O)NCc3ccc4c(c3)OCO4)C(=O)CC2)cc1 |  | inactive: 1.14%
CO[C@@H]1CN(C)C(=O)c2cc(NC(=O)C3CC3)ccc2OC[C@H](C)N(C(=O)CN2CCOCC2)C[C@@H]1C |  | inactive: 11.5%
COc1ccc(CN2CCC(C(=O)Nc3ccc(Oc4cccnc4)cc3)CC2)c(C)c1C | inconclusive [inhibitor, single point] | 
N/C(=N/OCC(=O)Nc1cccc2ccccc12)c1nonc1N | inconclusive [inhibitor, single point] | 
CSc1c(SCc2ccccc2)cnn(-c2ccccc2)c1=O | inconclusive [inhibitor, single point] | 
CCCn1c(CN(Cc2ccccc2)Cc2ccccc2)nc2c1c(=O)n(C)c(=O)n2C | active: 23.1 µM | 
O=C(Nc1cccc(C(=O)O)c1)/C(=C\c1ccccc1)NC(=O)c1ccc(Br)o1 |  | inactive: 3.2%
Cc1cccc(NC(=S)N2CCN(C(=O)c3ccco3)CC2)c1C |  | inactive: -0.693%
COc1ccccc1CNc1nc(NCc2cccc(OC)c2OC)c2sccc2n1 | active: 4.61 µM | 
O=C1CCC[C@@H]2Cc3nc4ccccc4cc3[C@@H]3CCN1[C@H]23 | inactive | 
CCC1CN(C(=O)N2CCC(C(=O)NCc3ccccc3OC)CC2)c2ccccc2O1 (stereo not given) | inconclusive [inhibitor, partial curve, poor fit] | 
O=C(Nc1nnc(S(=O)(=O)N2CCOCC2)s1)c1ccc(Cl)cc1 | inconclusive [inhibitor, single point] | 
CCOC(=O)c1ccc2c(c1)nc(SC/C(O)=C(\C#N)c1nc3ccccc3[nH]1)n2CC | inconclusive [inhibitor, single point] | 
Cc1ccc(NC(=S)NCc2ccc3c(c2)cc(C)n3C)c(C)c1 | active: 23.1 µM | 
COc1ccc(C(=O)Nc2nc(C)cc(C)n2)cc1[N+](=O)[O-] | inconclusive [inhibitor, single point] | 
Cc1ncc2c(c1CNC(=O)c1ccccc1F)CCN(C(=O)c1csc(-c3cccs3)n1)C2 |  | inactive: 4.5% [at 9.04 µM]
CCC(=O)Nc1ccc(C(=O)CSc2nnc(-c3ccccc3F)n2C2CC2)cc1 | inconclusive [inhibitor, single point] | 
COc1ccc(C(O)c2nc(-c3cc(F)cc(F)c3)cs2)cc1 (stereo not given) | active: 16.4 µM | 
CCCCN(CC(=O)NCCOC)C(=O)Cn1nnc2ccccc21 |  | inactive: 12%
C(=N\Nc1ccccc1)/c1nc2ccccc2s1 |  | inactive: -4.76%
CCOCCn1c(SCc2ccc(C)cc2)nc2c1c(=O)[nH]c(=O)n2C | active: 13 µM | 
COc1cccc(NC(=O)CSc2nc(C)c(Cc3ccccc3)c(=O)[nH]2)c1 | inconclusive [inhibitor, single point] | 
COc1cccc2sc3ccc(C#CC4(O)CCCCC4)cc3c(=O)c12 | inconclusive [inhibitor, single point] | 

Structure (SMILES) | Potency | activity change, negative = growth inhibition
COc1ccccc1Nc1ncnc2c1oc1ccccc12 | inconclusive [inhibitor, single point] | 
O=c1cc(CN2CCc3ccccc3C2)nc2sccn12 |  | inactive: -6.12%
COCCNC(=S)Nc1ccc2nc(N3CCCC3)cc(C)c2c1 |  | inactive: -0.606%
CCOC(=O)c1c(C)[nH]c(C)c1S(=O)(=O)NCC(=O)Nc1cccc(SC)c1 | inconclusive [inhibitor, partial curve, poor fit] | 
CCN(CC)c1ccc(NC(=O)CSc2n[nH]c(-c3ccco3)n2)cc1 | inconclusive [inhibitor, single point] | 
COc1ccc2oc(C(=O)OCC(=O)N3C(C)CCCC3C)c(C)c2c1 (stereo not given) |  | inactive: -22.5%
O=C(Nc1ccc(S(=O)(=O)C(F)F)cc1)c1ccc2c(=O)n3c(nc2c1)CCC3 | inconclusive [inhibitor, single point] | 
Fc1ccc(Cn2cc(C(=S)N3CCOCC3)c3ccccc32)cc1 | inconclusive [inhibitor, single point] | 
CC(C)CC1C(=O)N(Cc2cn(CCC3OCCCO3)nn2)CCS(=O)(=O)N1Cc1ccc(-c2ccccc2)cc1 (stereo not given) | inconclusive [inhibitor, single point] | 
COc1ccc(N(Cc2cc3cccc(C)c3[nH]c2=O)S(C)(=O)=O)cc1 | inconclusive [inhibitor, partial curve] | 
Cc1c(C)c2ccc(OCC(=O)c3ccccc3)cc2oc1=O | inconclusive [inhibitor, partial curve] | 
CCOC(=O)c1c(CN2CCN(CC#N)CC2)n(C)c2cc(Br)c(OC)cc12 | inconclusive [inhibitor, single point] | 
CCCCOc1cccc(C(=O)NC(=S)Nc2cccc(NC(=O)c3ccccc3Cl)c2)c1 | inconclusive [inhibitor, single point] | 
CCN(CC)c1ccc(C(=O)NCc2nc3cccnc3n2Cc2ccc(C)cc2)cc1 | active: 18.4 µM | 
Cc1ccc(C2N=C(N)Nc3nc4ccccc4n32)cc1 (stereo not given) | inconclusive [inhibitor, single point] | 
Cc1cccc(C(=O)NCc2nnc(SCC(=O)NC3=NCCS3)n2C)c1 | inconclusive [inhibitor, partial curve, poor fit] | 
Cc1nn(C)c(C)c1S(=O)(=O)N(CC(=O)NCCc1ccc(Cl)cc1)c1ccc(C(C)C)cc1 | active: 16.4 µM | 
COc1ccc2nc(NC(=O)CSc3ccccc3)sc2c1 | inconclusive [inhibitor, single point] | 
COc1ccc(OC)c(CNC(=O)c2c(C)oc3ncn(CC(C)C)c(=O)c23)c1 | inconclusive [inhibitor, single point] | 
CC1CCC2(CC1)C(Nc1cccc(Cl)c1)=NC(=S)N2CC#N (stereo not given) | inconclusive [inhibitor, single point] | 
Cc1cc(NC2CCCCC2)nc(-c2ccccc2O)n1 |  | inactive: -20.8%
CN1CCN(c2ccccc2NC(=O)Cc2ccc(Cl)cc2)CC1 |  | inactive: -17.8%
